{"source": "the RNAGym collection of RNA variant scans (doi:10.1093/nar/gkz1192)", "parents": {"B1": {"name": "CPEB3 Ribozyme (parent)", "chain": "UAACAGGGGGCCACAGCAGAAGCGUUCACGUCGCAGCCCCUGUCAGAUUCUGGUGAAUCUGCGAAUUCUGCUGUAUAUCUC"}}, "note": "Read counts are not given, so values of variants with three or more changes are uncertain.", "data": [{"variants_of": "B1", "experiment": "self-cleavage, relative activity (ratio to wild type); higher = more cleavage; in vitro, sequencing", "method_in_brief": "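Barcoded CPEB3 ribozyme mutants, produced by rounds of error-prone PCR, self-cleaved while being transcribed with T7 RNA polymerase for 5 hours at 37°C and during a subsequent 15 min DNase I step before EDTA was added. Sequencing of template-switched cDNA on Illumina gave cleaved and total reads, and DNA sequencing assigned barcodes to variants. Each variant's relative activity is its cleaved/total read fraction divided by the unmutated ribozyme's fraction, averaged across three batches. A variant needed a minimum of 5 reads.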", "values": [{"variant": "UAACAGGGGGCCACGGCAGAAGUGUUCACGUCGCAGCCCCUGUCAGAUUCUGGUGAAUCUGCGGAAUCUGCUGUAUAUCUC", "note": "[A15G C23U A64G U66A]", "self-cleavage": 0.35}, {"variant": "UAACAGGGGGCCACGGCAGAAGCGUUAACGUCGCAGCCCCUAUCAGAUUCUGGUGAAUCUGCGAAUUCUGCUGUAUAUCUC", "note": "[A15G C27A G42A]", "self-cleavage": 0.09}, {"variant": "UAACAGGGGGCCACGGCAGAAGCGUUAACGUCGCAGCCCCUGUCAGAUUCUCGUGAGUCUGCGAAUUCUGCUGUAUAUCUC", "note": "[A15G C27A G52C A57G]", "self-cleavage": 0.2}, {"variant": "UAACAGGGGGCCACGGCAGAAGCGUUUGCGUCGCAGCCCCUGUCAGAUUCUGGUGAAUCUGCGAAUUCUGCUGUAUAUCUC", "note": "[A15G C27U A28G]", "self-cleavage": 0.08}, {"variant": "UAACAGGGGGCCACGGCAGAAGCGUUUACGUCGCGGCCCCUGUCGGAUUCUGGUGGAUCUGCGAAUUCUGCAGCAUAUCUC", "note": "[A15G C27U A35G A45G A56G U72A U74C]", "self-cleavage": 0.06}, {"variant": "UAACAGGGGGCCACGGCAGAAGCGUUCAAGUCGCAGCCCCUGUCAGGUUCUGGUGAAUCUGCGAAUUCUGCUGUAUAUCUC", "note": "[A15G C29A A47G]", "self-cleavage": 0.36}, {"variant": "UAACAGGGGGCCACGGCAGAAGCGUUCAAGUCGCAGCCCCUGUCAGAUUCUGGUGAGUCUGCGAAUUCCGCCGCAUAUCUC", "note": "[A15G C29A A57G U69C U72C U74C]", "self-cleavage": 0.13}, {"variant": "UAACAGGGGGCCACGGCAGAAGCGUUCAGGCCGCAGCCCCUGUCAGAUUCUCGAGAAUCUGCGAAUUCUGCUCUAUAUCUC", "note": "[A15G C29G U31C G52C U54A G73C]", "self-cleavage": 0.09}, {"variant": "UAACAGGGGGCCACGGCAGAAGCGUUCAGGUCGCAGCCCCUGUCAGAUUCUGGUGAAUCUGCGAAUUCUGCAGUAUAUCUC", "note": "[A15G C29G U72A]", "self-cleavage": 0.37}, {"variant": "UAACAGGGGGCCACGGCAGAAGCGUUCAUGACGCAGCCCCUGUCAGAUUCUGGUGAAUCUGCGAAUUCUGCAGUGUAUCUC", "note": "[A15G C29U U31A U72A A75G]", "self-cleavage": 0.11}, {"variant": "UAACAGGGGGCCACGGCAGAAGCGUUCACGUGGCGGCCCCUGUCGGAUUCUGGUGAAUCUGCGAAUUCUGCUGUAUUUCUC", "note": "[A15G C32G A35G A45G A77U]", "self-cleavage": 0.39}, {"variant": "UAACAGGGGGCCACGGCAGAAGCGUUCACGUCGGAGCCCCUGUCAGAUUCUGGUGAAUCUGCGGAUUCUGCUGAAUAUCUC", "note": "[A15G C34G A64G U74A]", "self-cleavage": 0.07}, {"variant": "UAACAGGGGGCCACGGCAGAAGCGUUCACGUCGUAGCCCCUGUCAGAUUCUGGUGAACCAGCGAAUUCUGCCGUGUAUCUC", "note": "[A15G C34U U58C U60A U72C A75G]", "self-cleavage": 0.1}, {"variant": "UAACAGGGGGCCACGGCAGAAGCGUUCACGUCGCAGACCCUGCCAGAUUCUGGUGAAUCUGCGAAUUCUGCUGUAUAUCUC", "note": "[A15G C37A U43C]", "self-cleavage": 0.03}, {"variant": "UAACAGGGGGCCACGGCAGAAGCGUUCACGUCGCAGGCCCCGUCGGAUUCUGGUGAAUCUGCGUAUUCUGCUGUAUAUCAC", "note": "[A15G C37G U41C A45G A64U U80A]", "self-cleavage": 0.13}, {"variant": "UAACAGGGGGCCACGGCAGAAGCGUUCACGUCGCAGGCCCUGUCAGAUUCUGGUGAAUCUGCGAAUCCUGCAGUAUAUCUC", "note": "[A15G C37G U67C U72A]", "self-cleavage": 0.13}, {"variant": "UAACAGGGGGCCACGGCAGAAGCGUUCACGUCGCAGCACCUGUCAGAUUCUGGUGAAUCUGCGAAUUCUGCUGUAUAUCCC", "note": "[A15G C38A U80C]", "self-cleavage": 0.1}, {"variant": "UAACAGGGGGCCACGGCAGAAGCGUUCACGUCGCAGCUCCUGUCAGAUACUGGUGAAUCUGCGAAUUCUGCUGUAUAUCUC", "note": "[A15G C38U U49A]", "self-cleavage": 0.26}, {"variant": "UAACAGGGGGCCACGGCAGAAGCGUUCACGUCGCAGCCUUUGUCAGAUUCUGGUGAAUCUGCGAAUUCUGCUGUAUAUCUC", "note": "[A15G C39U C40U]", "self-cleavage": 0.13}, {"variant": "UAACAGGGGGCCACGGCAGAAGCGUUCACGUCGCAGCCCUUGUCAGAUUCAGGUGAAUCUGCGAAUUCUGCUGUAUAUCUC", "note": "[A15G C40U U51A]", "self-cleavage": 0.57}, {"variant": "UAACAGGGGGCCACGGCAGAAGCGUUCACGUCGCAGCCCCUGUGAGAUUCUGGUGAAUCUGCGAAUUCUGCCGUAUAUCUC", "note": "[A15G C44G U72C]", "self-cleavage": 0.59}, {"variant": "UAACAGGGGGCCACGGCAGAAGCGUUCACGUCGCAGCCCCUGUUAGAUUCUGGUGAAUCUGCGAAUUCUGCUGCAUAUCCC", "note": "[A15G C44U U74C U80C]", "self-cleavage": 0.19}, {"variant": "UAACAGGGGGCCACGGCAGAAGCGUUCACGUCGCAGCCCCUGUCAGAUUAUGGUGAAUCUGCGGAUUCUGCUGUUUAUCUC", "note": "[A15G C50A A64G A75U]", "self-cleavage": 0.29}, {"variant": "UAACAGGGGGCCACGGCAGAAGCGUUCACGUCGCAGCCCCUGUCAGAUUCUGGUGAAUUUGCGAGAUCUGCUGUAUAUCUC", "note": "[A15G C59U A65G U66A]", "self-cleavage": 0.14}, {"variant": "UAACAGGGGGCCACGGCAGAAGCGUUCACGUCGCAGCCCCUGUCAGAUUCUGGUGAAUCUGUGAACUCCGCUGUAUAUCUC", "note": "[A15G C62U U66C U69C]", "self-cleavage": 0.29}, {"variant": "UAACAGGGGGCCACGACAGAAGCUUUCACGUCGCAGCCCCUGUCAGAUUCUGGUGAAUCUGCGAAUUCUGCUGUAUUUCUC", "note": "[A15G G16A G24U A77U]", "self-cleavage": 0.04}, {"variant": "UAACAGGGGGCCACGACAGAAGCGUUCACGCCGCAGCCCCUGUCAGAUUCUGGUGAAUCUGCGAAUUCUGCUGUAUAUCUC", "note": "[A15G G16A U31C]", "self-cleavage": 0.23}, {"variant": "UAACAGGGGGCCACGCCAGAAGCGUUCACGUCGCAGCCCCUGUCAGAUUCUGGUGAAUCUGCGAAUUCUGCUGUACAUCUC", "note": "[A15G G16C U76C]", "self-cleavage": 0.11}, {"variant": "UAACAGGGGGCCACGUCAGGAGCGUUCACGUCGCAGCCCCUGGCAGAUUCUGGUGAAUCUGGGAAUUCUGCAGUAUAUCUC", "note": "[A15G G16U A20G U43G C62G U72A]", "self-cleavage": 0.01}, {"variant": "UAACAGGGGGCCACGUCAGAAGCGUUCUCGUCGCAGCCCCUGUCAGAUUCUGGUGAAUCUACGAACUCAGCUGUAUAUCUC", "note": "[A15G G16U A28U G61A U66C U69A]", "self-cleavage": 0.06}, {"variant": "UAACAGGGGGCCACGGCAAAAGCGUACACGUCGCAGCCCCCGUCAGAUCCUGGUGAAUCUGCGAAUUCUGCUGUAUAUCUC", "note": "[A15G G19A U26A U41C U49C]", "self-cleavage": 0.25}, {"variant": "UAACAGGGGGCCACGGCAUGAGCGUUCACGGCGCAGCCCCUGUCAGAUUCUGGUGAAUCCGCGAAUUCUGCUGUAUACCUC", "note": "[A15G G19U A20G U31G U60C U78C]", "self-cleavage": 0.03}, {"variant": "UAACAGGGGGCCACGGCAUAAGCUUUCACGUCGCAGCCCCUGUCAGACUCUGGUGUAUCAGCGUAUUCUGCUGUAUAUCUC", "note": "[A15G G19U G24U U48C A56U U60A A64U]", "self-cleavage": 0.04}, {"variant": "UAACAGGGGGCCACGGCAGAAGCAUUCGCGUCGCAGCCCCUGUCAGACUCUGGUGAAUCUGCGAAUUCUGCUGUAUAUCAC", "note": "[A15G G24A A28G U48C U80A]", "self-cleavage": 0}]}]}
